According to article PMC4336329 (PLoS ONE, 2015):
Screen size: about 310,000 compounds; about 2,200 (0.71%) showed an effect of 50% or more. Effects have a minus sign here. Some of the results follow.

Biological target: human ether-à-go-go-related gene (hERG) potassium channel (human, UniProt Q12809)
Assay: primary screen, population patch clamp on CHO cells stably expressing hERG

Sequence of human ether-à-go-go-related gene (hERG) potassium channel (Q12809 whole entry, looked up): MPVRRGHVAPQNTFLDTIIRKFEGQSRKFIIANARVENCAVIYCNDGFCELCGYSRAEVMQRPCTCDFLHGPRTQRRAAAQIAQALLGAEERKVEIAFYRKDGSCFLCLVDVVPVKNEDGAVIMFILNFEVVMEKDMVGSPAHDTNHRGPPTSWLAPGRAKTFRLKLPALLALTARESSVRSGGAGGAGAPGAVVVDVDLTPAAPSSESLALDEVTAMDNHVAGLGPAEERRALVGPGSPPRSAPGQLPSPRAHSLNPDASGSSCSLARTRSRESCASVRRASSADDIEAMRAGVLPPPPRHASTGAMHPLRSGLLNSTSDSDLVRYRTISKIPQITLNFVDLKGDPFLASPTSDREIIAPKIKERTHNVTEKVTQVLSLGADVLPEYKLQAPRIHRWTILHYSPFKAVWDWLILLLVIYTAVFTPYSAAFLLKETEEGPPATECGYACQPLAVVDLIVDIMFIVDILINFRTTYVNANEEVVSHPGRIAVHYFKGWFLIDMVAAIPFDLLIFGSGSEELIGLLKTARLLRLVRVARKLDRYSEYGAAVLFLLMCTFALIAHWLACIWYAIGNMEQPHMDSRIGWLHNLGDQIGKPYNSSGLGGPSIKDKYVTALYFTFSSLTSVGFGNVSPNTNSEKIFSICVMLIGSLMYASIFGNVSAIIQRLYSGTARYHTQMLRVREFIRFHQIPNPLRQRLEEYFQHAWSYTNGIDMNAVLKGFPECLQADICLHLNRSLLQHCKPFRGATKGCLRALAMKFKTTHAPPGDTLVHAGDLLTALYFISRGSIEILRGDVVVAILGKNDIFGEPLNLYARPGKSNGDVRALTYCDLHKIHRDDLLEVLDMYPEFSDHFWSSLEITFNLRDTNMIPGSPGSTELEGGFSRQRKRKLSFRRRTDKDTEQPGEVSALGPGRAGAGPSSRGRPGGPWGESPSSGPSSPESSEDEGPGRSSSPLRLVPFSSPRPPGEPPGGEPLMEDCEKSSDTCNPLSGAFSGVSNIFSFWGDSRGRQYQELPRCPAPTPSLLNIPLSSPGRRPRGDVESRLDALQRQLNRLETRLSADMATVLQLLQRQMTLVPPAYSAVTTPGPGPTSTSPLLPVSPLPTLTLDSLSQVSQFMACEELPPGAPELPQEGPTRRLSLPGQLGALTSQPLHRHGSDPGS

SMILES | hERG current change (%, negative = inhibition) at 1uM [%]
Cc1sc2ncn(CC(=O)NCC(=O)N3CCN(c4ccc(F)cc4)CC3)c(=O)c2c1C | 1.4
C=CCOc1ccc(/C(O)=C2/C(=O)C(=O)N(CCCn3ccnc3)C2c2cccs2)cc1 (stereo not shown) | 19.1
COc1ccccc1NC(=O)C1CC(O)CN1C(=O)Oc1ccccc1 (stereo not shown) | 7.17
Cc1cccc(NC(=O)CCN2C(=O)C3C4C=CC(C4)C3C2=O)c1 (stereo not shown) | 15.3
O=C(Cn1[nH]c(=O)c2ccccc2c1=O)NCC1COc2ccccc2O1 (stereo not shown) | -21
CCOC(=O)C(NCc1ccco1)(NC(=O)c1ccccc1)C(F)(F)F (stereo not shown) | 12.4
O=C(CCNC(=O)N1CC(=O)Nc2ccccc21)NCc1ccc(F)cc1 | 24.3
CCN(CC)S(=O)(=O)c1cccc(C(=O)NC(C)C(c2cccs2)N2CCCC2)c1 (stereo not shown) | 9.96
CCc1ccc(NC(=S)NNC(=O)c2ccccc2OC(F)F)cc1 | 13
COc1cccc(C(=O)N2CCC(n3nccc3NC(=O)CCOc3ccccc3)CC2)c1 | 41.6
CN1C(=O)[C@H]2[C@@H](C3CC3)N3C(=O)CN(Cc4ccccc4)C(=O)[C@@]3(C)[C@H]2C1=O | 4.32
O=S(=O)(NC1CCCC1)c1ccc(S(=O)(=O)N2CCc3ccccc32)cc1 | 3.05
O=C(O)C(=O)O.OCCNCCOc1ccccc1-c1ccccc1 | 5.24
CN(C)c1ccnc(NCc2ccccc2)c1C#N | -3.33
Cl.O=C(CN1CCCCC1)c1ccc(F)cc1 | 7.09
CN1C(=O)NC(NC(=O)c2ccco2)(C(F)(F)F)C1=O (stereo not shown) | 3.87
CCCCCN(C(=O)CCC(=O)OC(C)C(=O)c1ccc(Cl)cc1)c1c(N)n(CCCC)c(=O)[nH]c1=O (stereo not shown) | 15
Cn1c(=O)[nH]c(=O)c2c1nc(CN1CCN(c3ccc(F)cc3)CC1)n2CCc1ccccc1 | 3.89
Cc1occc1C(=O)N/N=C/C=C/c1ccc(N(C)C)cc1 | -2.85
CC(C)Cc1csc(NC(=O)c2ccccc2Cl)c1C(=O)O | 3.33
CC/C(=N\NC(C)=O)c1ccc(OC(F)F)cc1 | 15.2
COc1ccc(CNc2ccc([N+](=O)[O-])cc2C)cc1 | 8.83

SMILES | hERG current change (%, negative = inhibition) at 1uM [%]
CC(C)NC(=O)NC(=O)COC(=O)c1ncc(Cl)c(Cl)c1Cl | 16.9
O=C(CNC1CCCCCC1)Nc1ccccc1N1CCOCC1.O=C(O)C(=O)O | 9.49
CCOC(=O)CSc1nnc(Cc2ccc(OC)cc2)n1-c1ccccc1 | 9.68
Clc1ccccc1-c1nnc2sc(-c3ccco3)nn12 | -2.59
O=C(NCc1ccc2c(c1)OCO2)C1CCC(=O)N1C1CCCC1 (stereo not shown) | 0.703
CN(C)C(=S)Oc1ccccc1-c1ccccc1OC(=S)N(C)C | 10.2
COC(=O)c1ccccc1NC(=O)C1COc2ccccc2O1 (stereo not shown) | 6.52
Cc1ccc(NNC(=O)C2CCC2)cc1C | 4.81
O=C(O)C1CCN(S(=O)(=O)c2ccc3c(c2)OCCCO3)CC1 | 11.7
NC(=O)CC[C@@H]1NC(=O)[C@H](CO)NC(=O)c2cc([N+](=O)[O-])cc(I)c2NCC[C@@H](C(N)=O)NC(=O)[C@H](Cc2ccc(O)cc2)NC1=O | 13.5
CCOC(=O)c1cccc(NC(=O)COc2ccc([N+](=O)[O-])cc2)c1 | -22.7
Cc1nn(CC(=O)Nc2cc(S(=O)(=O)N3CCOCC3)ccc2Cl)c(C)c1[N+](=O)[O-] | 11.9
CN(C)S(=O)(=O)N1CCN(C(=O)N2CCCCCC2)CC1 | 4.92
CCN(CC)S(=O)(=O)c1ccc(F)cc1 | -6.24
NS(=O)(=O)c1ccc(NC(=S)N2CCN(Cc3ccc4c(c3)OCO4)CC2)cc1 | 7.54
Cc1ccc(CNC(=O)Cc2csc(Nc3nc(=S)[nH]c4ccccc34)n2)cc1 | 6
CC1=C(C(=O)OCc2ccc3c(c2)OCO3)C(c2ccccc2)NC(=O)N1 (stereo not shown) | 4.78
Cc1ccc(S(=O)(=O)N2CCN(C(=O)CC(C)n3cncn3)CC2)cc1 (stereo not shown) | 8.67
O=C(O)c1ccc(CS(=O)(=O)Cc2ccccc2F)o1 | 12.2
CN(C(=O)CSc1nnc(Cc2ccccc2F)n1N)C1CCS(=O)(=O)C1 (stereo not shown) | 10.8
CCOc1ccc(NC(=O)CN2CC(c3ccccc3)CC2=O)cc1 (stereo not shown) | 3.11
O=C1NN(c2ccccc2)C(=O)/C1=C\c1ccccc1OCC(=O)N1CCOCC1 | 6.5

SMILES | hERG current change (%, negative = inhibition) at 1uM [%]
COCCNc1nc(N)c([N+](=O)[O-])c(NCC2CCCO2)n1 (stereo not shown) | 11
O=C1C=C(c2cccc(Cl)c2)C[C@@H](c2ccc3c(c2)OCO3)C1 | 12.3
Cc1ncc(C[n+]2csc(CCO)c2C)c(N)n1.Cl.[Cl-] | 15.2
CCOC(=O)CNC(=O)c1cccnc1.Cl | 3.17
O=C(Cn1cccc1)N1CCc2ccccc21 | 6.21
C/C(=N\NC(=S)NCc1ccccc1)c1ccc2ccccc2c1OC(F)F | -6.1
COc1cc(/C=N/NC(=S)NC2CC3CC2C2C=CCC32)ccc1O (stereo not shown) | 10.1
O=C(CSc1nc2nc(-c3cccs3)cc(C(F)(F)F)c2c(=O)[nH]1)C(F)(F)F | 4
O=C(COC(=O)c1ccc2ccccc2n1)NC1CCCCC1 | 11.3
C=CCOC(=O)C1=C(C)Nc2nnnn2C1c1ccc(OC)cc1OC (stereo not shown) | -6.71
O=S(=O)(Nc1ccc2c(c1)OCCO2)c1c(F)cccc1F | 8.3
CCC(C)[C@H](NC(=O)C1CC(=O)N(c2ccc3c(c2)OCCO3)C1)C(=O)NC1CCCC1 (stereo partly shown) | 13
Cc1ccc(N(CC(=O)N/N=C/c2cccs2)S(C)(=O)=O)cc1Cl | 0.412
COc1ccc(NC(=O)CN(C)S(=O)(=O)c2ccc3c(c2)c(=O)n(C)c(=O)n3C)cc1 | -2.04
O=C(Nc1nncs1)C1c2ccccc2Oc2ccccc21 | 7.61
Cc1cccn2c(=O)c(C=O)c(N3CCCCC3)nc12 | 2.05
O=C(c1cnn2c(C(F)F)cc(-c3ccccc3)nc12)N1CCSCC1 | 6.07
CCOc1cccc(-c2nnc3sc(-c4cccs4)nn23)c1 | 1.84
C=CCNCCOc1c(C)cc(C)cc1Cl.O=C(O)C(=O)O | 5.06
Cc1ccccc1NC(=O)c1ccc(CN2CCC(Cc3ccccc3)CC2)cc1 | -38
COc1cc([N+](=O)[O-])ccc1NC(=O)NNC(=O)C(C)Oc1ccc(F)cc1F (stereo not shown) | 2.74
Cc1sc2ncnc(SCC(=O)N3CCOCC3)c2c1C | 12

SMILES | hERG current change (%, negative = inhibition) at 1uM [%]
O=C(O)C(=O)O.O=C(c1cccs1)N1CCN(Cc2cccnc2)CC1 | 12.2
CC1C(=O)CCCCCCCCCC2C1(N1CCOCC1)CS2(=O)=O (stereo not shown) | 0.765
Fc1ccc(-c2ccnc3nc(-n4cccc4)nn23)cc1 | 1.47
CSc1ccccc1NC(=O)CCc1ccccc1 | 0.485
COc1ccc2oc(=O)c(C(=O)NCc3ccco3)cc2c1 | 15.4
O=C(Cc1ccccc1)NN1C(=O)C2C(C1=O)C1C=CC2C12CC2 (stereo not shown) | 5.59
CCOC(=O)C1CCN(CC(=O)N(CC(C)C)c2c(N)n(CC(C)C)c(=O)[nH]c2=O)CC1 | 2.99
Cc1cc(Nc2ccccc2)nc(N2CCOCC2)n1 | 4.19
C/C=C(/C)C(=O)O[C@@H]1c2c(ccc3ccc(=O)oc23)O[C@@H]1C(C)(C)OC(C)=O | 9.43
COc1ccc(-c2ccc(=O)n(Cc3c(F)cccc3Cl)n2)cc1 | 10.8
CCCc1cc(C(=O)Nc2ccc(F)cc2F)no1 | 9.78
Cc1cc(C)cc(NC(=O)C2CC3CCC2C3)c1 (stereo not shown) | 14.9
COc1ccc(CNC(=O)CN2CCN(c3ccccc3)CC2)cc1 | 13.1
Cc1ccc(S(=O)(=O)N(C)c2ccccc2C(=O)Nc2ccc(F)cc2F)cc1 | 17.9
COc1ccc(NC(=O)c2cn(CCC#N)nc2-c2ccc([N+](=O)[O-])cc2)cc1 | 7.94
CCCCn1c(N)c(N(Cc2ccccc2OC)C(=O)C2=COCCO2)c(=O)[nH]c1=O | 17.1
CSCCC(NC(=O)C12CC3CC(CC(C3)C1)C2)C(=O)OCC(=O)c1ccc(C)cc1 (stereo not shown) | 19.7
Cc1nn(-c2ccccc2)c(N2CCCC2)c1/C=N/NC(=O)c1ccccc1O | 6.99
CC(=O)C1=C(C)N(CC2CC2)C(=O)N[C@H]1c1ccccc1 | 16.4
Cc1noc(-c2ccc(Cl)cc2)c1C(=O)O/N=C(\N)c1ccc(C(C)(C)C)cc1 | 5.65
COC(=O)C1=C(O)/C(=C\c2ccc(CNS(=O)(=O)c3ccccc3)o2)N=C1C | -1.79
COc1ccc(C)cc1NC(=O)C1CCCN(S(=O)(=O)c2ccc(-n3cnnn3)cc2)C1 (stereo not shown) | -71.4
